Assay results: patent US20250304706A1 (Astellas, published 2025)

B1: BTE-0070 (bispecific antibody)
chain 1: QVQLVESGGGVVQPGGSLRLSCAASGFTFSSYGMHWVRQAPGKGLEWVAVIWYDGRNKYYADSVKGRFTISRDNSKNTLYLQMNSLRAEDTAVYYCTRDHSGSGSYYIDYWGQGTLVTVSSASTKGPSVFPLAPSSKSTSGGTAALGCLVKDYFPEPVTVSWNSGALTSGVHTFPAVLQSSGLYSLSSVVTVPSSSLGTQTYICNVNHKPSNTKVDKKVEPKSCDKTHTCPPCPAPEAAGGPSVFLFPPKPKDTLMISRTPEVTCVVVDVSHEDPEVKFNWYVDGVEVHNAKTKPREEQYNSTYRVVSVLTVLHQDWLNGKEYKCKVSNKALAAPIEKTISKAKGQPREPQVYTLPPSRDELTKNQVSLSCAVKGFYPSDIAVEWESNGQPENNYKTTPPVLDSDGSFFLVSKLTVDKSRWQQGNVFSCSVMHEALHNHYTQKSLSLSPGK
chain 2: EIAMTQSPATLSVSPGERATLSCRASQSVSSNLAWYQQKPGQAPRLLIYGASTRATGLPARFSGSGSGTEFTLTISSLQSEDFAVYYCQQYNNFWTFGQGTKVEIKRTVAAPSVFIFPPSDEQLKSGTASVVCLLNNFYPREAKVQWKVDNALQSGNSQESVTEQDSKDSTYSLSSTLTLSKADYEKHKVYACEVTHQGLSSPVTKSFNRGEC
chain 3: EVQLVESGGGLIQPGGSLRLSCAASGFTFSDHAMNWVRQAPGKGLEWVARIRSKYNNYATYYADSVKDRFTISRDDSKSTLYLQMNNLRAEDTAVYYCVRHGNFGDSYVSWFAYWGQGTLVTVSSGKPGSGKPGSGKPGSGKPGSQAVVTQEPSLTVSPGGTVTLTCRSSTGAVTTSNYANWVQQKPGQAPRGLIGGTNKRAPGTPARFSGSLLGDKAALTLSGAQPEDEAEYYCALWYSNLWVFGGGTKVTVL[human IgG1 Fc with C220S L234A L235A P329A T366W (EU numbers) cut from this listing]
B2: BTE-0078 (bispecific antibody)
chain 1: QVQLVESGGGVVQPGGSLRLSCAASGFTFSSYGMHWVRQAPGKGLEWVAVIWYDGRNKYYADSVKGRFTISRDNSKNTLYLQMNSLRAEDTAVYYCTRDHSGSGSYYIDYWGQGTLVTVSSASTKGPSVFPLAPSSKSTSGGTAALGCLVKDYFPEPVTVSWNSGALTSGVHTFPAVLQSSGLYSLSSVVTVPSSSLGTQTYICNVNHKPSNTKVDKKVEPKSCDKTHTCPPCPAPEAAGGPSVFLFPPKPKDTLMISRTPEVTCVVVDVSHEDPEVKFNWYVDGVEVHNAKTKPREEQYNSTYRVVSVLTVLHQDWLNGKEYKCKVSNKALAAPIEKTISKAKGQPREPQVYTLPPSRDELTKNQVSLSCAVKGFYPSDIAVEWESNGQPENNYKTTPPVLDSDGSFFLVSKLTVDKSRWQQGNVFSCSVMHEALHNHYTQKSLSLSPGK
chain 2: EIAMTQSPATLSVSPGERATLSCRASQSVSSNLAWYQQKPGQAPRLLIYGASTRATGLPARFSGSGSGTEFTLTISSLQSEDFAVYYCQQYNNFWTFGQGTKVEIKRTVAAPSVFIFPPSDEQLKSGTASVVCLLNNFYPREAKVQWKVDNALQSGNSQESVTEQDSKDSTYSLSSTLTLSKADYEKHKVYACEVTHQGLSSPVTKSFNRGEC
chain 3: EVQLVESGGGLIQPGGSLRLSCAASGFTFNTYAMNWVRQAPGKGLEWVARIRSKYNNYATYYADSVKDRFTISRDDSKSTLYLQMNNLRAEDTAVYYCVRHGNFGDEYVSWFAYWGQGTLVTVSSGKPGSGKPGSGKPGSGKPGSQAVVTQEPSLTVSPGGTVTLTCRSSTGAVTTSNYANWVQQKPGQAPRGLIGGTNKRAPGTPARFSGSLLGDKAALTLSGAQPEDEAEYYCALWYSNLWVFGGGTKVTVL[human IgG1 Fc with C220S L234A L235A P329A T366W (EU numbers) cut from this listing]
B3: BTE-0076 (bispecific antibody)
chain 1: QVQLVESGGGVVQPGGSLRLSCAASGFTFSSYGMHWVRQAPGKGLEWVAVIWYDGRNKYYADSVKGRFTISRDNSKNTLYLQMNSLRAEDTAVYYCTRDHSGSGSYYIDYWGQGTLVTVSSASTKGPSVFPLAPSSKSTSGGTAALGCLVKDYFPEPVTVSWNSGALTSGVHTFPAVLQSSGLYSLSSVVTVPSSSLGTQTYICNVNHKPSNTKVDKKVEPKSCDKTHTCPPCPAPEAAGGPSVFLFPPKPKDTLMISRTPEVTCVVVDVSHEDPEVKFNWYVDGVEVHNAKTKPREEQYNSTYRVVSVLTVLHQDWLNGKEYKCKVSNKALAAPIEKTISKAKGQPREPQVYTLPPSRDELTKNQVSLSCAVKGFYPSDIAVEWESNGQPENNYKTTPPVLDSDGSFFLVSKLTVDKSRWQQGNVFSCSVMHEALHNHYTQKSLSLSPGK
chain 2: EIAMTQSPATLSVSPGERATLSCRASQSVSSNLAWYQQKPGQAPRLLIYGASTRATGLPARFSGSGSGTEFTLTISSLQSEDFAVYYCQQYNNFWTFGQGTKVEIKRTVAAPSVFIFPPSDEQLKSGTASVVCLLNNFYPREAKVQWKVDNALQSGNSQESVTEQDSKDSTYSLSSTLTLSKADYEKHKVYACEVTHQGLSSPVTKSFNRGEC
chain 3: EVQLVESGGGLIQPGGSLRLSCAASGFTFNTYAMNWVRQAPGKGLEWVARIRSKYNNYATEYADSVKDRFTISRDDSKSTLYLQMNNLRAEDTAVYYCVRHGNFGDSYVSWFAYWGQGTLVTVSSGKPGSGKPGSGKPGSGKPGSQAVVTQEPSLTVSPGGTVTLTCRSSTGAVTTSNYANWVQQKPGQAPRGLIGGTNKRAPGTPARFSGSLLGDKAALTLSGAQPEDEAEYYCALWYSNLWVFGGGTKVTVL[human IgG1 Fc with C220S L234A L235A P329A T366W (EU numbers) cut from this listing]
B4: BTE-0077 (bispecific antibody)
chain 1: QVQLVESGGGVVQPGGSLRLSCAASGFTFSSYGMHWVRQAPGKGLEWVAVIWYDGRNKYYADSVKGRFTISRDNSKNTLYLQMNSLRAEDTAVYYCTRDHSGSGSYYIDYWGQGTLVTVSSASTKGPSVFPLAPSSKSTSGGTAALGCLVKDYFPEPVTVSWNSGALTSGVHTFPAVLQSSGLYSLSSVVTVPSSSLGTQTYICNVNHKPSNTKVDKKVEPKSCDKTHTCPPCPAPEAAGGPSVFLFPPKPKDTLMISRTPEVTCVVVDVSHEDPEVKFNWYVDGVEVHNAKTKPREEQYNSTYRVVSVLTVLHQDWLNGKEYKCKVSNKALAAPIEKTISKAKGQPREPQVYTLPPSRDELTKNQVSLSCAVKGFYPSDIAVEWESNGQPENNYKTTPPVLDSDGSFFLVSKLTVDKSRWQQGNVFSCSVMHEALHNHYTQKSLSLSPGK
chain 2: EIAMTQSPATLSVSPGERATLSCRASQSVSSNLAWYQQKPGQAPRLLIYGASTRATGLPARFSGSGSGTEFTLTISSLQSEDFAVYYCQQYNNFWTFGQGTKVEIKRTVAAPSVFIFPPSDEQLKSGTASVVCLLNNFYPREAKVQWKVDNALQSGNSQESVTEQDSKDSTYSLSSTLTLSKADYEKHKVYACEVTHQGLSSPVTKSFNRGEC
chain 3: EVQLVESGGGLIQPGGSLRLSCAASGFTFNTYAMNWVRQAPGKGLEWVARIRSKYNNYATSYADSVKDRFTISRDDSKSTLYLQMNNLRAEDTAVYYCVRHGNFGDSYVSWFAYWGQGTLVTVSSGKPGSGKPGSGKPGSGKPGSQAVVTQEPSLTVSPGGTVTLTCRSSTGAVTTSNYANWVQQKPGQAPRGLIGGTNKRAPGTPARFSGSLLGDKAALTLSGAQPEDEAEYYCALWYSNLWVFGGGTKVTVL[human IgG1 Fc with C220S L234A L235A P329A T366W (EU numbers) cut from this listing]
B5: BTE-0075 (bispecific antibody)
chain 1: QVQLVESGGGVVQPGGSLRLSCAASGFTFSSYGMHWVRQAPGKGLEWVAVIWYDGRNKYYADSVKGRFTISRDNSKNTLYLQMNSLRAEDTAVYYCTRDHSGSGSYYIDYWGQGTLVTVSSASTKGPSVFPLAPSSKSTSGGTAALGCLVKDYFPEPVTVSWNSGALTSGVHTFPAVLQSSGLYSLSSVVTVPSSSLGTQTYICNVNHKPSNTKVDKKVEPKSCDKTHTCPPCPAPEAAGGPSVFLFPPKPKDTLMISRTPEVTCVVVDVSHEDPEVKFNWYVDGVEVHNAKTKPREEQYNSTYRVVSVLTVLHQDWLNGKEYKCKVSNKALAAPIEKTISKAKGQPREPQVYTLPPSRDELTKNQVSLSCAVKGFYPSDIAVEWESNGQPENNYKTTPPVLDSDGSFFLVSKLTVDKSRWQQGNVFSCSVMHEALHNHYTQKSLSLSPGK
chain 2: EIAMTQSPATLSVSPGERATLSCRASQSVSSNLAWYQQKPGQAPRLLIYGASTRATGLPARFSGSGSGTEFTLTISSLQSEDFAVYYCQQYNNFWTFGQGTKVEIKRTVAAPSVFIFPPSDEQLKSGTASVVCLLNNFYPREAKVQWKVDNALQSGNSQESVTEQDSKDSTYSLSSTLTLSKADYEKHKVYACEVTHQGLSSPVTKSFNRGEC
chain 3: EVQLVESGGGLIQPGGSLRLSCAASGFTFNTYAMNWVRQAPGKGLEWVARIRSKANNYATYYADSVKDRFTISRDDSKSTLYLQMNNLRAEDTAVYYCVRHGNFGDSYVSWFAYWGQGTLVTVSSGKPGSGKPGSGKPGSGKPGSQAVVTQEPSLTVSPGGTVTLTCRSSTGAVTTSNYANWVQQKPGQAPRGLIGGTNKRAPGTPARFSGSLLGDKAALTLSGAQPEDEAEYYCALWYSNLWVFGGGTKVTVL[human IgG1 Fc with C220S L234A L235A P329A T366W (EU numbers) cut from this listing]
B6: BTE-0081 (bispecific antibody)
chain 1: QVQLVESGGGVVQPGGSLRLSCAASGFTFSSYGMHWVRQAPGKGLEWVAVIWYDGRNKYYADSVKGRFTISRDNSKNTLYLQMNSLRAEDTAVYYCTRDHSGSGSYYIDYWGQGTLVTVSSASTKGPSVFPLAPSSKSTSGGTAALGCLVKDYFPEPVTVSWNSGALTSGVHTFPAVLQSSGLYSLSSVVTVPSSSLGTQTYICNVNHKPSNTKVDKKVEPKSCDKTHTCPPCPAPEAAGGPSVFLFPPKPKDTLMISRTPEVTCVVVDVSHEDPEVKFNWYVDGVEVHNAKTKPREEQYNSTYRVVSVLTVLHQDWLNGKEYKCKVSNKALAAPIEKTISKAKGQPREPQVYTLPPSRDELTKNQVSLSCAVKGFYPSDIAVEWESNGQPENNYKTTPPVLDSDGSFFLVSKLTVDKSRWQQGNVFSCSVMHEALHNHYTQKSLSLSPGK
chain 2: EIAMTQSPATLSVSPGERATLSCRASQSVSSNLAWYQQKPGQAPRLLIYGASTRATGLPARFSGSGSGTEFTLTISSLQSEDFAVYYCQQYNNFWTFGQGTKVEIKRTVAAPSVFIFPPSDEQLKSGTASVVCLLNNFYPREAKVQWKVDNALQSGNSQESVTEQDSKDSTYSLSSTLTLSKADYEKHKVYACEVTHQGLSSPVTKSFNRGEC
chain 3: EVQLVESGGGLIQPGGSLRLSCAASGFTFSDHAMNWVRQAPGKGLEWVARIRSKYNNYATYYADSVKDRFTISRDDSKSTLYLQMNNLRAEDTAVYYCVRHGNFGNSYVSWFAYWGQGTLVTVSSGKPGSGKPGSGKPGSGKPGSQAVVTQEPSLTVSPGGTVTLTCRSSTGAVTTSNYANWVQQKPGQAPRGLIGGTNKRAPGVPARFSGSLLGDKAALTLSGAQPEDEAEYYCALWYSNLWVFGGGTKVTVL[human IgG1 Fc with C220S L234A L235A P329A T366W (EU numbers) cut from this listing]

The binders below were run against T1, CD3εδ complex protein (human; alpaca, UniProt P07766 23-126; P04234 22-105) (assay: ELISA, CD3 complex immobilized).
Chain of UniProt P07766 (P07766 23-126 limits assumed, stated change not applied, form in doubt, chain 1 of 2): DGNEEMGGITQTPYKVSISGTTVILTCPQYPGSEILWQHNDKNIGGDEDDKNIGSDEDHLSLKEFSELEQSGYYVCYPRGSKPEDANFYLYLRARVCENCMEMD
Chain of UniProt P07766 (P04234 22-105 limits assumed, stated change not applied, form in doubt, chain 2 of 2, further chain): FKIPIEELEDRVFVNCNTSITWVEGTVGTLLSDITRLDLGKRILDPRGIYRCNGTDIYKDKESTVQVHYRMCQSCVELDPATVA
T1 construct: they are not part of the secreted protein; also called human CD3; CD386 complex protein
Outline: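 Bispecific anti-TSPAN8/anti-CD3 antibodies bound to immobilized CD3εδ complex protein in ELISA, detected with HRP anti-human IgG Fc and TMB absorbance. EC50 from a four-parameter variable-slope fit, top fixed at plate maximum and bottom at blank; reference antibody averaged across plates.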
In the case of B1, the EC50 is reported as 0.632 µg/mL.
B2 showed an EC50 of 0.634 µg/mL.
For B3, the EC50 was 0.438 µg/mL.
In the case of B4, the EC50 is reported as 0.274 µg/mL.
Work on B5 yielded an EC50 of 0.113 µg/mL.
B6 showed an EC50 of 0.152 µg/mL.
